This is an account of results in US20250075006A1 (SHANDONG SIMCERE BIOPHARMACEUTICAL, published 2025).

By EC50 (read off the curve) is commonly meant the concentration at which the effect is half-maximal. By Kd is commonly meant the constant that tells how readily two partners part at equilibrium. A word on the koff: it is the first-order rate constant of dissociation. The kon is the second-order rate constant of association.

Assay [1] addresses T1, human GUCY2C protein, full length, on cells (human, UniProt P25092 24-1073).
T1 construct: whole, on cells; also called endogenous tumor cells HT55
The experiment in a line: FACS on 293T-hGUCY2C cells, MFI. The protocol: Then a complete medium was added to stop the digestion, and the cells were blown into a single cell suspension. After counting, the cells were centrifuged, and the cell pellet was resuspended to 2×10⁶ cells/mL in an FACS buffer (PBS+2% fetal bovine serum), and added to a 96-well FACS reaction plate at 100 μL/well. The plate was centrifuged, and the supernatant was discarded. An antibody sample to be tested (diluted in a 5-fold gradient from a starting concentration of 100 nM) was added at 50 μL/well and uniformly mixed with the cells, and the mixture was incubated at 4° C. for 1 h. […] The results were tested and analyzed by FACS (FACS Canto™, purchased from BD) after the plate was centrifuged and washed 3 times with a PBS buffer and resuspended with 100 μL of PBS. Data analysis was performed by software (FlowJo) to obtain the mean fluorescence intensity (MFI) of the cells. Then, analysis was performed by software (GraphPad Prism8), data were fitted, and EC50 values were calculated. As shown in A-C in FIG. 14, PF1608-hIgG1 binds strongly to GUCY2C at the protein level, but weakly at the cellular level. The humanized antibodies of the present application are all capable of binding effectively to recombinant cells expressing human GUCY2C protein and substantially maintain the equivalent binding ability of the recombinant antibodies.

The target in assay [2] is T2, Human GUCY2C ECD (his-tagged human GUCY2C protein extracellular domain fusion protein) (human, UniProt P25092 partial chain).
T2 construct: also called human GUCY2C-his; human GUCY2C-His
The experiment in a line: SPR Biacore, antibody on Protein A, antigen injected. The protocol:
(§1) The strength of antibody-antigen binding was assayed with a BIAcore 8K instrument using a Protein A capture method. First, Protein A was immobilized onto a CM4 chip (purchased from GE, BR-1005-34) using an amino coupling method. According to the instruction of the Amine Coupling Kit (purchased from GE, BR100633), NHS and EDC were mixed with HBS-EP+pH 7.4 as a mobile phase to activate the chip for about 600 s; the Protein A was diluted to 50 μg/mL with 10 mM sodium acetate (pH 4.5) and injected for 600 s, and finally, the remaining activated sites were blocked with ethanolamine. Then, the affinity of the antibody for the antigen was assayed using a multi-cycle kinetic method; in each cycle, first, the antibody to be tested was captured using the Protein A chip, and then a single concentration of antigen protein was injected. The association and dissociation processes of the antibody with the antigen protein were recorded, and finally, the chip was regenerated using Glycine pH 1.5, wherein the mobile phase was HBS-EP+(10 mM HEPES, 150 mM NaCl, 3 mM EDTA, 0.05% surfactant P20), the flow rate was 30 μL/min, the regeneration time was 30 s, and the assay temperature was 25° C. Finally, according to a 1:1 binding model, the data were analyzed, and the antibody-antigen binding kinetics parameters, including the association rate constant Ka, the dissociation rate constant Kd, the equilibrium dissociation constant KD, and the maximum binding signal Rmax, were fitted.
(§2) After the finally obtained various humanized antibodies were expressed and purified, the affinities of the humanized antibodies for the human and monkey GUCY2C proteins were separately assayed according to the method in Example 4.6.
(In SPR one partner is held on a chip, and binding of the other changes the refractive index at the surface.)

Assay [3] deals with T2, Human GUCY2C ECD (his-tagged human …). The experiment in a line: ELISA, plate coated with human GUCY2C-his, OD450. The protocol: To assay the binding activity of the humanized antibodies to human GUCY2C-his protein, a human GUCY2C-his protein was diluted with PBS to a final concentration of 2 μg/mL and then added to a 96-well ELISA plate at 50 μL/well. The plate was sealed with a plastic film and incubated at 4° C. overnight. The next day, the plate was washed 2 times with PBST, and a blocking buffer [PBS+2% (w/w) BSA] was added for blocking at room temperature for 2 h. The blocking buffer was discarded, and the plate was washed 2 times with PBST. An antibody to be tested or a control antibody diluted in a 1:3 gradient from a starting concentration of 100 nM was added at 50 μL/well. After incubation at 37° C. for 1 h, the plate was washed 3 times with PBST. A horseradish peroxidase (HRP)—labeled secondary antibody (purchased from Merck, Cat. No. AP113P) was added for incubation at 37° C. for 1 h, and the plate was washed 5 times with PBST. A TMB substrate was added at 50 µL/well for incubation at room temperature for 5-10 min, and then a stop solution (1.0 M HCl) was added at 50 μL/well. OD450 nm values were read using an ELISA plate reader (Multimode Plate Reader, EnSight, purchased from Perkin Elmer).
(In an ELISA, binding on a coated surface is turned into a signal by an enzyme label.)

Assay [4] concerns the target T3, Cyno GUCY2C ECD (his-tagged cynomolgus monkey GUCY2C protein extracellular domain fusion protein) (cynomolgus monkey, UniProt P25092 partial chain (human entry)).
T3 construct: also called monkey GUCY2C-his; monkey GUCY2C-His
T3 chain: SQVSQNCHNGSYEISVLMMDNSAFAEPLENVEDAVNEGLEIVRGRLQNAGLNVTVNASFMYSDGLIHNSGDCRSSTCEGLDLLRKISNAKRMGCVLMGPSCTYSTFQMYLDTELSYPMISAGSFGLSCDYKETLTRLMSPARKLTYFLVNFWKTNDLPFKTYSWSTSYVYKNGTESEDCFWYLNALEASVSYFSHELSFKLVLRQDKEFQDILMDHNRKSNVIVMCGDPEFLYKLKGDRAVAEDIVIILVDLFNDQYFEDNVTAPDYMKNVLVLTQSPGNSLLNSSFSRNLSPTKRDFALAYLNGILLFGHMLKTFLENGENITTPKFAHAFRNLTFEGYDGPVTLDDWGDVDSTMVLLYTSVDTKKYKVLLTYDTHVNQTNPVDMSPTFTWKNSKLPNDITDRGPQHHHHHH
The experiment in a line: ELISA, plate coated with monkey GUCY2C-his, OD450.

The target of assay [5] is T2, Human GUCY2C ECD (his-tagged human …). The experiment in a line: BLI Gator, antibody on anti-human Fc probe, antigen in solution. As to the method:
(§3) Next, we measured the affinity of the recombinant antibody by another method, and the specific procedures were as follows: the binding strength of the antibody to the antigen was assayed by acquiring and analyzing the signal change of the reflection interference spectrum on the surface of the optical probe by using thin film interference technology. First, the probe was equilibrated for 300 s with HBS-T+pH 7.4 (0.02% tween) as the mobile phase. 2 μg/mL of the antibody to be tested was captured by an anti-human FC probe (purchased from ProbeLife, PL168-160003) for 240 s, and then antigen proteins with the concentration of 200 nM and diluted two-fold were injected. Kon for 300 s and Koff for 600 s. The association and dissociation processes of the antibody with the antigen protein were recorded, and finally, the chip was regenerated using Glycine pH 2.0 (purchased from GE), wherein the mobile phase was HBS-T+pH 7.4 (0.02% tween), the regeneration time was 5 s, and the assay temperature was 30° C. Finally, according to a 1:1 binding model, the data were analyzed, and the antibody-antigen binding kinetics parameters, including the association rate constant Ka, the dissociation rate constant Kd, the equilibrium dissociation constant KD, and the maximum binding signal Rmax, were fitted. The association rate (Ka), dissociation rate (Kd), and binding affinity (KD) of the recombinant antibodies with the human GUCY2C and monkey GUCY2C proteins are shown in Table 6.
as §2

For assay [6], the target named is T3, Cyno GUCY2C ECD (his-tagged cynomolgus …). The description is as above. The protocol: as §3, §2
Assay [7] addresses T2, Human GUCY2C ECD (his-tagged human …). Description: SPR Biacore, antibody on Protein A, antigen injected. The protocol:
as §1
The association rate (Ka), dissociation rate (Kd), and binding affinity (KD) of the recombinant antibodies Lab306-huFc, Lab322-huFc, and Lab323-huFc with the human GUCY2C protein are shown in Table 5. The positive control antibody has good binding activity at the protein level, but has very weak binding at the cellular level. Lab322-huFc and Lab323-huFc, although weak in affinity, bind well to the cellular level, presumably due to differences in the conformation of the proteins and proteins at the viable cellular level.
The source holds these as a separate data set.

Assay [8] shares this target. Description: BLI Gator, antibody on anti-human Fc probe, antigen in solution. The protocol: as §3
This is another data set of the same source.

Assay [9] has as its target T3, Cyno GUCY2C ECD (his-tagged cynomolgus …). Described as above. As to the method: as §3

Like-named read-outs stand apart in the source and are kept apart here.

B1: hu-Lab323H3-huFc (Fc fusion)
chain: EVQLVESGGGLVKPGGSLRLSCASSGRTSTIHRMGWFRQAPGKEREFVSSISRVSSTTYYADSVKGRFTISRDNAKNSLYLQMNSLRAEDTAVYYCAASEYEVSPGKSKYWGQGTMVTVSS[human IgG1 Fc with C220S (EU numbers) not listed]
As to B1, the “EC50 (read off the curve)” value in [1] is ~3 nM; in assay [3] it was ~0.2 nM; in assay [4], ~0.5 nM. Moreover, the Kd in assay [2] worked out at 273 nM; in [5], 26.6 nM; in [6], 41.5 nM. Also, the koff in assay [2] came to 0.000274 s⁻¹; in assay [5] it was 0.00146 s⁻¹; in assay [6], 0.000975 s⁻¹. Further, the kon in assay [5] worked out at 54900 M⁻¹ s⁻¹; in [6], 23500 M⁻¹ s⁻¹.

B2: hu-Lab323H5-huFc (Fc fusion)
chain: EVQLVESGGGLVKPGGSLRLSCASSGRTSTIHRMGWFRQAPGKEREFVSSISRVSSTTYYADSVKGRFTISRDNAGNSLYLQMNSLRAEDTAVYYCAASEYEVSPGKSKYWGQGTMVTVSS[human IgG1 Fc with C220S (EU numbers) not listed]
For B2, the “EC50 (read off the curve)” value in assay [1] was ~3 nM; in [3] it was ~0.3 nM; in assay [4], ~0.8 nM. Besides, the results for the Kd in [2], in [5] and in [6] were 310 nM, 27.8 nM and 19.1 nM, respectively. Also, the koff in assay [2] turned out to be 1.65 s⁻¹; in [5], 0.00123 s⁻¹; in [6], 0.000569 s⁻¹. The kon is 44300 M⁻¹ s⁻¹ in [5] and 29800 M⁻¹ s⁻¹ in assay [6].

B3: hu-Lab323H2-huFc (Fc fusion)
chain: EVQLVESGGGLVKPGGSLRLSCAASGRTSTIHRMGWFRQAPGKEREFVSSISRVSSTTYYADSVKGRFTISRDNAKNSLYLQMNSLRAEDTAVYYCAASEYEVSPGKSKYWGQGTMVTVSS[human IgG1 Fc with C220S (EU numbers) not listed]
In the case of B3, the “EC50 (read off the curve)” value in [1] was ~3 nM; in [3], ~0.2 nM; in assay [4], ~0.5 nM. In addition, the dissociation constant Kd in [2] is 165 nM; in [5], 26.7 nM; in assay [6] it was 17.5 nM. The dissociation rate constant (koff) came to 0.000167 s⁻¹ in assay [2], 0.00151 s⁻¹ in assay [5] and 0.000691 s⁻¹ in [6]. Further, the figures for the kon in assay [5] and in [6] were 56400 M⁻¹ s⁻¹ and 39500 M⁻¹ s⁻¹, respectively.

B4: Lab323-huFc (Fc fusion)
chain: QLQLVESGGGLVQPGGSLRLSCVSSGRTSTIHRMGWFRQAPGKERDFVASISRVSSTTYYADSVKGRFTISRDNAGNTVYLQMNSLKPEDTAVYYCAASEYEVSPGKSKYWGQGTQVTVSS[human IgG1 Fc with C220S (EU numbers) not listed]
notes: also called recombinant antibody Lab323-huFc
As to B4, in assay [7], the Kd worked out at 102 nM, the koff is 0.00029 s⁻¹ and the on-rate (kon) came out at 2830 M⁻¹ s⁻¹. Also, in [8], the Kd was 12.2 nM, the koff came to 0.00087 s⁻¹ and the kon is 71400 M⁻¹ s⁻¹. In assay [9], this molecule returned a Kd of 17.8 nM, a koff of 0.0006 s⁻¹ and a kon of 33800 M⁻¹ s⁻¹.

B5: hu-Lab323H4-huFc (Fc fusion)
chain: QLQLVESGGGLVKPGGSLRLSCASSGRTSTIHRMGWFRQAPGKEREFVSSISRVSSTTYYADSVKGRFTISRDNAKNSLYLQMNSLRAEDTAVYYCAASEYEVSPGKSKYWGQGTMVTVSS[human IgG1 Fc with C220S (EU numbers) not listed]
For the molecule B5, the “EC50 (read off the curve)” value in assay [1] was ~3 nM; in assay [3] it was ~0.2 nM; in assay [4], ~0.5 nM. The dissociation constant (Kd) in assay [2] stood at 558 nM; in assay [5], 29.9 nM; in assay [6], 48.3 nM. The koff in [2] turned out to be 0.000618 s⁻¹; in [5] it was 0.00203 s⁻¹; in assay [6] it was 0.00143 s⁻¹. The kon in assay [2] was determined as 1110 M⁻¹ s⁻¹; in [5], 67800 M⁻¹ s⁻¹; in assay [6] it was 29600 M⁻¹ s⁻¹.
